To fix the notation:
T1: RBFOX1 RRM (Homo sapiens, UniProt Q9NWB1 109-208)
T1 sequence: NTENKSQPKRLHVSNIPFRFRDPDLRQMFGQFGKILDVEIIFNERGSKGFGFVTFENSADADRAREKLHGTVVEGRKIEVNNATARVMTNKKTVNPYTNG

B1: AACCACU (DNA:RNA)
RNA: GGGAGACCGGAAUUCAGAUUGUCCAACCACUUUAAAUCCCGUCGUAGCCACCA
DNA 1: CAATCTGAATTCCGGTCTCCC
DNA 2: TGGTGGCTACGACGGGATT
B2: GAGGCAG (DNA:RNA)
RNA: B1 RNA with A25G, C27G, C28G, A29C, C30A, U31G
DNA 1: CAATCTGAATTCCGGTCTCCC
DNA 2: TGGTGGCTACGACGGGATT
B3: UGGACUG (DNA:RNA)
RNA: GGGAGACCGGAAUUCAGAUUGUCCUGGACUGUUAAAUCCCGUCGUAGCCACCA
DNA 1: CAATCTGAATTCCGGTCTCCC
DNA 2: TGGTGGCTACGACGGGATT
B4: GCGUUCU (DNA:RNA)
RNA: B1 RNA with A25G, A26C, C27G, C28U, A29U
DNA 1: CAATCTGAATTCCGGTCTCCC
DNA 2: TGGTGGCTACGACGGGATT
B5: AAUGGCU (DNA:RNA)
RNA: B1 RNA with C27U, C28G, A29G
DNA 1: CAATCTGAATTCCGGTCTCCC
DNA 2: TGGTGGCTACGACGGGATT
B6: CUAGGAC (DNA:RNA)
RNA: GGGAGACCGGAAUUCAGAUUGUCCCUAGGACUUAAAUCCCGUCGUAGCCACCA
DNA 1: CAATCTGAATTCCGGTCTCCC
DNA 2: TGGTGGCTACGACGGGATT
B7: AUGAAAG (DNA:RNA)
RNA: B3 RNA with U25A, G26U, C29A, U30A
DNA 1: CAATCTGAATTCCGGTCTCCC
DNA 2: TGGTGGCTACGACGGGATT
B8: GUGCAUG (DNA:RNA)
RNA: B3 RNA with U25G, G26U, A28C, C29A
DNA 1: CAATCTGAATTCCGGTCTCCC
DNA 2: TGGTGGCTACGACGGGATT
B9: CGUGGCG (DNA:RNA)
RNA: B6 RNA with U26G, A27U, A30C, C31G
DNA 1: CAATCTGAATTCCGGTCTCCC
DNA 2: TGGTGGCTACGACGGGATT
B10: AAGAAAC (DNA:RNA)
RNA: B1 RNA with C27G, C28A, C30A, U31C
DNA 1: CAATCTGAATTCCGGTCTCCC
DNA 2: TGGTGGCTACGACGGGATT
B11: GCGUCUA (DNA:RNA)
RNA: B3 RNA with U25G, G26C, A28U, G31A
DNA 1: CAATCTGAATTCCGGTCTCCC
DNA 2: TGGTGGCTACGACGGGATT
B12: UGAACCU (DNA:RNA)
RNA: B3 RNA with G27A, U30C, G31U
DNA 1: CAATCTGAATTCCGGTCTCCC
DNA 2: TGGTGGCTACGACGGGATT
B13: UGUGACU (DNA:RNA)
RNA: B1 RNA with A25U, A26G, C27U, C28G
DNA 1: CAATCTGAATTCCGGTCTCCC
DNA 2: TGGTGGCTACGACGGGATT
B14: UGGGCAA (DNA:RNA)
RNA: B3 RNA with A28G, U30A, G31A
DNA 1: CAATCTGAATTCCGGTCTCCC
DNA 2: TGGTGGCTACGACGGGATT
B15: CGUGUAG (DNA:RNA)
RNA: B6 RNA with U26G, A27U, G29U, C31G
DNA 1: CAATCTGAATTCCGGTCTCCC
DNA 2: TGGTGGCTACGACGGGATT
B16: GGCGCGA (DNA:RNA)
RNA: B3 RNA with U25G, G27C, A28G, U30G, G31A
DNA 1: CAATCTGAATTCCGGTCTCCC
DNA 2: TGGTGGCTACGACGGGATT
B17: AUGUCUG (DNA:RNA)
RNA: B3 RNA with U25A, G26U, A28U
DNA 1: CAATCTGAATTCCGGTCTCCC
DNA 2: TGGTGGCTACGACGGGATT
B18: AUGGCUU (DNA:RNA)
RNA: B3 RNA with U25A, G26U, A28G, G31U
DNA 1: CAATCTGAATTCCGGTCTCCC
DNA 2: TGGTGGCTACGACGGGATT
B19: UAUAGAU (DNA:RNA)
RNA: B1 RNA with A25U, C27U, C28A, A29G, C30A
DNA 1: CAATCTGAATTCCGGTCTCCC
DNA 2: TGGTGGCTACGACGGGATT
B20: AUCGAUA (DNA:RNA)
RNA: B1 RNA with A26U, C28G, C30U, U31A
DNA 1: CAATCTGAATTCCGGTCTCCC
DNA 2: TGGTGGCTACGACGGGATT
B21: UUGGUUU (DNA:RNA)
RNA: B3 RNA with G26U, A28G, C29U, G31U
DNA 1: CAATCTGAATTCCGGTCTCCC
DNA 2: TGGTGGCTACGACGGGATT
B22: GACCAGU (DNA:RNA)
RNA: B1 RNA with A25G, C30G
DNA 1: CAATCTGAATTCCGGTCTCCC
DNA 2: TGGTGGCTACGACGGGATT
B23: AAGUCGA (DNA:RNA)
RNA: B1 RNA with C27G, C28U, A29C, C30G, U31A
DNA 1: CAATCTGAATTCCGGTCTCCC
DNA 2: TGGTGGCTACGACGGGATT
B24: UUCAGUA (DNA:RNA)
RNA: B3 RNA with G26U, G27C, C29G, G31A
DNA 1: CAATCTGAATTCCGGTCTCCC
DNA 2: TGGTGGCTACGACGGGATT
B25: ACAACCU (DNA:RNA)
RNA: B1 RNA with A26C, C27A, C28A, A29C
DNA 1: CAATCTGAATTCCGGTCTCCC
DNA 2: TGGTGGCTACGACGGGATT
B26: CCUACAC (DNA:RNA)
RNA: B6 RNA with U26C, A27U, G28A, G29C
DNA 1: CAATCTGAATTCCGGTCTCCC
DNA 2: TGGTGGCTACGACGGGATT
B27: GUAUCGC (DNA:RNA)
RNA: B6 RNA with C25G, G28U, G29C, A30G
DNA 1: CAATCTGAATTCCGGTCTCCC
DNA 2: TGGTGGCTACGACGGGATT
B28: UCUCACC (DNA:RNA)
RNA: B1 RNA with A25U, A26C, C27U, U31C
DNA 1: CAATCTGAATTCCGGTCTCCC
DNA 2: TGGTGGCTACGACGGGATT
B29: UAUUACU (DNA:RNA)
RNA: B1 RNA with A25U, C27U, C28U
DNA 1: CAATCTGAATTCCGGTCTCCC
DNA 2: TGGTGGCTACGACGGGATT
B30: AUGUCGA (DNA:RNA)
RNA: B3 RNA with U25A, G26U, A28U, U30G, G31A
DNA 1: CAATCTGAATTCCGGTCTCCC
DNA 2: TGGTGGCTACGACGGGATT
B31: GCAGGCG (DNA:RNA)
RNA: B6 RNA with C25G, U26C, A30C, C31G
DNA 1: CAATCTGAATTCCGGTCTCCC
DNA 2: TGGTGGCTACGACGGGATT

The results in this text go back to article PMC9911399, “Two distinct binding modes provide the RNA-binding protein RbFox with extraordinary sequence specificity”.

Residue numbers refer to the chain shown, from its start. This is one part of the list.

This assay addresses T1, RBFOX1 RRM. As to the kind of experiment: EMSA; HiTS-Eq, 1 nM pool, 10 min; buffer printed only for the single-RNA assays: 10 mM Tris pH 7.5, 150 mM NaCl, 3.4 mM EDTA, 0.001% NP-40, 30 C. The settings on record: tags: His6 N-terminal (pET28a); label: 5' 32P. Summed up: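 Purified wild-type or mutant RbFox RRM at increasing concentrations was equilibrated with 1 nM of 5′-radiolabelled RNA carrying 7 randomized nucleotides for 10 min in 50 µL. Unbound RNA was separated by 8% native PAGE and sequenced. Relative association constants came from read-count changes of each RNA species compared with the control reaction, normalised to the cognate motif.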
For orientation: Mobility shift assays separate free from complexed probe on a gel.
Regarding B1, the binding signal is 0.00154 KA relative to UGCAUGU.

As for B2, the binding signal was 0.0185 KA relative to UGCAUGU.

Regarding B3, the binding signal was 0.0448 KA relative to UGCAUGU.

Turning to B4, the binding signal was 0.0151 KA relative to UGCAUGU.

Turning to B5, the binding signal is 0.0109 KA relative to UGCAUGU.

In the case of B6, the binding signal was 0.00183 KA relative to UGCAUGU.

On to B7, for which the binding signal is 0.00866 KA relative to UGCAUGU.

As to B8, the binding signal is 1 KA relative to UGCAUGU.

For the molecule B9, the binding signal is 0.0179 KA relative to UGCAUGU.

In the case of B10, the binding signal is 0.00334 KA relative to UGCAUGU.

Turning to B11, the binding signal was 0.00811 KA relative to UGCAUGU.

As for B12, the binding signal was 0.00633 KA relative to UGCAUGU.

As to B13, the binding signal was 0.0165 KA relative to UGCAUGU.

Turning to B14, the binding signal is 0.0304 KA relative to UGCAUGU.

Turning to B15, the binding signal is 0.01 KA relative to UGCAUGU.

B16: the binding signal was 0.0218 KA relative to UGCAUGU.

In the case of B17, the binding signal is 0.0158 KA relative to UGCAUGU.

For B18, the binding signal is 0.0132 KA relative to UGCAUGU.

Regarding B19, the binding signal was 0.0118 KA relative to UGCAUGU.

On to B20, for which the binding signal is 0.00619 KA relative to UGCAUGU.

With B21, the binding signal was 0.0272 KA relative to UGCAUGU.

For B22, the binding signal is 0.00685 KA relative to UGCAUGU.

Turning to B23, the binding signal was 0.00655 KA relative to UGCAUGU.

Regarding B24, the binding signal is 0.00931 KA relative to UGCAUGU.

For B25, the binding signal is 0.000511 KA relative to UGCAUGU.

B26: the binding signal is 0.000769 KA relative to UGCAUGU.

B27: the binding signal is 0.0143 KA relative to UGCAUGU.

As to B28, the binding signal is 0.00737 KA relative to UGCAUGU.

With B29, the binding signal is 0.00399 KA relative to UGCAUGU.

Regarding B30, the binding signal is 0.0144 KA relative to UGCAUGU.

Regarding B31, the binding signal is 0.0163 KA relative to UGCAUGU.
